Out of some 310,000 compounds screened, about 2,200 (0.71%) showed an effect of 50% or more. The effect is printed as a negative number. The list shows a part of the results.
Target: human ether-à-go-go-related gene (hERG) potassium channel (human, UniProt Q12809)
Assay: primary screen, population patch clamp on CHO cells stably expressing hERG

Chain of human ether-à-go-go-related gene (hERG) potassium channel (Q12809 whole entry, looked up): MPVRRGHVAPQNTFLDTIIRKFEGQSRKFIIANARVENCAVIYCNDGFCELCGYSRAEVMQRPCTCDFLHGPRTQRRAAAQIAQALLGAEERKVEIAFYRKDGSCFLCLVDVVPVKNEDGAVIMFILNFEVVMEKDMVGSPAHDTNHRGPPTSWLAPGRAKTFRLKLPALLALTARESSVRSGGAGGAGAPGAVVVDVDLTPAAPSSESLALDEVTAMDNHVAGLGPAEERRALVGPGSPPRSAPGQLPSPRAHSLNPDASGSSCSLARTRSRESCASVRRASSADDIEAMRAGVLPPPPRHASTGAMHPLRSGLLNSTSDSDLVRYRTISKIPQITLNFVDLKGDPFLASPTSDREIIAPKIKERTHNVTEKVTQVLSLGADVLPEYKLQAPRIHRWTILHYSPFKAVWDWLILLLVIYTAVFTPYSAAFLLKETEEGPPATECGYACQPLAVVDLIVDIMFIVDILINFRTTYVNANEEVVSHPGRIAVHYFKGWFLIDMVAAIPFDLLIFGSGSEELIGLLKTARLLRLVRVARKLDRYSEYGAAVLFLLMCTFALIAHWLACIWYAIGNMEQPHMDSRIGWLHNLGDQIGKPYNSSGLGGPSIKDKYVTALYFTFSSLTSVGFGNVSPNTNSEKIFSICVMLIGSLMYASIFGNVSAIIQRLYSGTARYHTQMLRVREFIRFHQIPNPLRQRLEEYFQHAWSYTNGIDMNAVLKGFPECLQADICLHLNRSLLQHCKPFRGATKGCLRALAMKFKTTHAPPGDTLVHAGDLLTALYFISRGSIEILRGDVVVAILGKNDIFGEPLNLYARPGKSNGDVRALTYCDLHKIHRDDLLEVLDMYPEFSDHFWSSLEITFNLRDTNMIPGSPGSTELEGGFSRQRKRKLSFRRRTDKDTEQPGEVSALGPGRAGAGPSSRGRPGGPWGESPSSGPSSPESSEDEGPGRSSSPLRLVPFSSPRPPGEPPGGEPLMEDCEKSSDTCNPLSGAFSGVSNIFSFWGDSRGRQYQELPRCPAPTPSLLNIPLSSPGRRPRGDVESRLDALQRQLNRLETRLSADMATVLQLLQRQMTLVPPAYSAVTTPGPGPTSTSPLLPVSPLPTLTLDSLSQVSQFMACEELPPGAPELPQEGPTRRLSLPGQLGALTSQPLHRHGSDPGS

Row | Compound | hERG current change (%, negative = inhibition) at 1uM
1 | O=C(NC1CCCC1)C1CCCN1C(=O)Nc1ccccc1 (stereo not drawn) | 16.4%
2 | Cc1ccc2cc(C)c(SCC#N)nc2c1 | 13.9%
3 | CN1CCN(CCn2c(=S)[nH]c3ccccc3c2=O)CC1 | 5.52%
4 | CCCCc1ccc(/C=C2/C(=O)ON=C2c2ccccc2)s1 | 16.2%
5 | CNC(=O)CSc1nnc(-c2cc(C)cc(C)c2)o1 | 6.79%
6 | CC(=O)N1c2ccc3ccccc3c2C(C)CC12CCCCC2 (stereo not drawn) | 6.89%
7 | CN(C)S(=O)(=O)N1CCN(c2ccc(Cl)cc2)CC1 | 5.65%
8 | CCc1ccccc1N1C(=O)C2CC(C)=C(C)CC2C1=O (stereo not drawn) | 15%
9 | CCCn1nnnc1NCc1ccc(N(C)C)cc1 | 10.2%
10 | Cc1cc(C)nc(NC(=S)Nc2cccc(Cl)c2Cl)c1 | 15.2%
11 | O=c1[nH]c2ccc(S(=O)(=O)N3CCCCC3)cc2o1 | 14.3%
12 | COc1ccc(S(=O)(=O)N2CCOCC2)cc1NC(=O)c1ccc(OCC(C)C)c(OC)c1 | 0.239%
13 | Cc1cc(C)cc(C(=O)OCC(=O)N2CCCC2)c1 | 6.37%
14 | CCC(C)N(C(=O)COC(=O)c1[nH]c(C)c(C(C)=O)c1C)C1CCS(=O)(=O)C1 (stereo not drawn) | -0.629%
15 | CCC1=C(OC(=O)N(CC)CC)N2C(=O)OC(=NCC3CC3)[C@]2(Cc2ccccc2)[C@H]2C1=CC[C@H]1C(=O)N(CC(=O)OC)C(=O)[C@H]12 | 4.88%
16 | O=C(O)C(=O)/C(=C\c1ccc(Cl)cc1)c1ccc2ccccc2n1 | 8.44%
17 | CC1CN(C(=O)c2ccc3c(c2)OCO3)CC(C)O1 (stereo not drawn) | 3.09%
18 | Cc1sc2nc(C3CC3)nc(N3CCN(S(=O)(=O)c4ccc(F)cc4)CC3)c2c1C | 6.79%
19 | O=C(N/N=C\c1cccnc1)c1ccc(Cl)s1 | 14.7%
20 | COc1ccc(NC(=O)CCCn2c(=O)c3sccc3n(Cc3cccc(C)c3)c2=O)cc1 | 13.1%
21 | COc1cc(C=O)ccc1OC(=O)c1cccnc1 | 13.7%
22 | CCOc1ccc(N2CC(C(=O)Nc3ccc(S(=O)(=O)N4CCCCC4)cc3)CC2=O)cc1 (stereo not drawn) | 11.8%
23 | COC(=O)c1nnn(-c2nonc2N)c1CSc1nc2ccccc2s1 | -3.01%

Row | Compound | hERG current change (%, negative = inhibition) at 1uM
24 | COc1ccccc1-c1nnc2sc(COc3ccc(Cl)cc3)nn12 | 7.85%
25 | Cc1c(CCOC(=O)CC23CC4CC(CC(C4)C2)C3)sc[n+]1CC(=O)c1ccccc1.[Br-] | -6.04%
26 | CC1(C)Cc2ccccc2C(=NC(Cc2c[nH]c3ccccc23)C(=O)O)N1 (stereo not drawn) | 9.1%
27 | O=C(/C=C/c1ccc(Cl)cc1Cl)n1cccn1 | 10.1%
28 | CC(C)c1ccc(NC(=O)c2cc3c(=O)n(C)c4ccccc4c3n2C)cc1 | 12.4%
29 | CN(CC(=O)Nc1cccc(F)c1)CC(=O)Nc1ccccc1[N+](=O)[O-] | 10%
30 | O=C(O)CCn1cc(C=C2C(=O)NC(=O)NC2=O)c(-c2cc3ccccc3oc2=O)n1 | 20.6%
31 | O=C(CCc1nc(-c2ccccc2F)no1)NCCN1CCc2ccccc2C1 | -17.1%
32 | N#C/C(=C/c1ccc(F)cc1)C(N)=S | 21.9%
33 | CCOC(=O)c1c(S(=O)(=O)Nc2ccc(F)cc2C)c(C)n(C)c1C | 10.4%
34 | CCOC(=O)c1sc(NC(=S)NC(=O)c2ccccc2)c(C(=O)OCC)c1C | 14.1%
35 | Cc1cc(NC(=O)CNCC(c2ccccc2)N(C)C)c([N+](=O)[O-])cc1C (stereo not drawn) | -1.9%
36 | Cc1ccccc1-n1c(=O)cc(N2CCc3ccccc3C2)[nH]c1=O | -17.1%
37 | Cc1ccccc1OCC(=O)Nc1ccccc1-c1ccccc1 | 7.98%
38 | c1ccc2[nH]cnc2c1 | 8.56%
39 | CCOc1ccccc1NC(=O)C(c1ccccc1)N1CCN(C(=O)c2ccco2)CC1 (stereo not drawn) | -12.1%
40 | CC(C)C(c1nnnn1C1CCCCC1)N1CCOCC1 (stereo not drawn) | 5.38%
41 | COc1ccc(-c2cc(C(F)(F)F)nc(SCC(=O)N3CCOCC3)n2)cc1OC | -10.7%
42 | CCOC(=O)CCC(=O)N1CCOCCN(C(=O)CCC(=O)OCC)CCOCC1 | 16.5%
43 | CC(C)(C)n1cnc2cc(NS(=O)(=O)c3ccccc3)ccc21 | 2.3%
44 | CCn1c(COc2ccccc2OC)nnc1SCC(=O)NC1CCCC1 | -4.68%
45 | CCC(C)Sc1cccc(-c2nc3ccc(Cl)cn3c2NCc2ccccc2)c1.O=C(O)C(F)(F)F (stereo not drawn) | 9.74%

Source: publication PMC4336329 (PLoS ONE, 2015)
